Data as given in PubChem BioAssay AID624296 (National Center for Advancing Translational Sciences (NCATS), 2012).
About 9,900 (2.8%) of roughly 350,000 compounds were called active. Inconclusive means that the source gave no clear call. Such entries were picked first, then a sample of the others. The call rests on the fitted dose curve; in most records, active means well fitted activation curve with a large enough effect; inconclusive means small, poorly fitted or top-dose-only effect; inactive means no such curve, though single readings can be large or run the other way. No potency is given beside an inconclusive call; the fits are too rough.

Test: A quantitative high throughput screen for small molecules that induce DNA re-replication in MCF 10a normal breast cells. Further: nearly all actives have a fitted effect of over 50% in size. On activity, positive = re-replication: % of control where 0% means no effect.
Details: MCF 10A DNA re-replication, Hoechst nuclear intensity, 48 h; activity, positive = re-replication: at 46.1 µM (top of the series)
Potency means the concentration at half of the fitted maximal effect; tags describe the fitted curve by direction and shape.

| Compound | Potency | activity, positive = re-replication |
| --- | --- | --- |
| O=C(O)C1=C(OCc2ccccc2)C(=O)NCC1 | inactive | – |
| CCC(Cc1ccccc1)NC(=O)C1CCCCC1 (stereo unspecified) | active: 0.651 µM | – |
| CCc1c(C)nc(SCC(=O)N2CCN(c3ccccc3)CC2)[nH]c1=O | inactive | – |
| CCN(CC)CCN(C(=O)c1ccc2c(c1)CCCC2)c1nc2c(C)cccc2s1 | inconclusive [activator, partial curve, poor fit] | – |
| C[C@H](CO)N1C[C@H](C)[C@@H](CN(C)C(=O)NC2CCCCC2)Oc2ccc(NS(C)(=O)=O)cc2C1=O | inactive | – |
| NC(N)=NS(=O)(=O)c1ccc(N/C=C/C(=O)c2ccc(Cl)c(Cl)c2)cc1 | inconclusive [activator, single point] | – |
| CC(C)Cc1nc(S(=O)(=O)c2ccc(Cl)cc2)c(N2CCOCC2)o1 | inactive | – |
| Cn1c(=O)c2ncn(CC(=O)Nc3nc(-c4ccc(Cl)cc4)cs3)c2n(C)c1=O | inconclusive [activator, single point] | – |
| Oc1ccc(C2CNCc3sccc32)cc1O (stereo unspecified) | inconclusive [activator, single point] | – |
| CN(C)CCCNc1c2ccccc2nc2ccccc12 | – | inconclusive: 52.3% [activator] |
| C=CCc1cccc(/C=N/NC(=O)CNc2ccccc2OC)c1O | inconclusive [activator, partial curve, poor fit] | – |
| Cc1nc(N2CCN(Cc3nc4ccccc4[nH]3)CC2)c2oc3ccccc3c2n1 | inconclusive [activator, partial curve, poor fit] | – |
| CCOc1ncccc1C(=O)NCCN1C(=O)S/C(=C/c2cccs2)C1=O | inconclusive [activator, full curve, poor fit] | – |
| CN(C)S(=O)(=O)N(CC(=O)Nc1ccc2ccccc2c1)c1ccccc1 | inactive | – |
| NC(=O)c1nsc(C(=O)N(c2ccccc2F)C(C(=O)NCc2ccccc2)c2ccc(O)cc2)c1N (stereo unspecified) | inconclusive [activator, single point] | – |
| Cc1c(N=Cc2cc(Br)cc(Br)c2O)cccc1C(=O)O | inconclusive [activator, single point] | – |
| COc1ccc(OC)c(NC(=O)CSc2ncccc2C(=O)O)c1 | inconclusive [activator, single point] | – |
| Cc1noc2ncnc(N3CCCC3)c12 | inconclusive [activator, full curve, poor fit] | – |
| COc1ccc(N(CC(=O)Nc2cc(Cl)ccc2OC)S(=O)(=O)c2c(C)noc2C)cc1 | inconclusive [activator, single point] | – |
| O=C(NCc1ccccc1)C1=C[C@@H](C2CCCCC2)C[C@@H](OCc2ccc(CO)cc2)O1 | active: 18.4 µM | – |
| CN(Cc1ccccc1)S(=O)(=O)c1cccs1 | inactive | – |
| CCCN1CCN(S(=O)(=O)c2c(C)[nH]c(C)c2C(=O)N2CCCCC2)CC1 | inconclusive [activator, single point] | – |
| CCOc1ccc(N(CC(=O)Nc2ccccc2C(=O)N2CCCC2)S(C)(=O)=O)cc1 | inactive | – |
| O=C(NCc1ccccc1Cl)C1CCCN1S(=O)(=O)c1ccccc1F (stereo unspecified) | inactive | – |

| Compound | Potency | activity, positive = re-replication |
| --- | --- | --- |
| COc1cccc(/C=N/Nc2nccnc2Cl)c1O | active: 5.8 µM | – |
| COc1cc(C(=O)Nc2ccc(Oc3ncnc4sc(-c5ccccc5)cc34)cc2)cc(OC)c1OC | inactive | – |
| COc1ccc(CCC(C)N2CCOCC2)cc1 (stereo unspecified) | inconclusive [activator, partial curve, poor fit] | – |
| COC(=O)c1[nH]c2cc(OC)ccc2c1NC(=O)c1ccc2c(c1)OCO2 | inconclusive [activator, partial curve, poor fit] | – |
| COC(=O)c1cnc(NNS(=O)(=O)c2ccc(C(F)(F)F)cc2)nc1C(F)(F)F | inactive | – |
| COc1ccc(CCNC(=O)c2cc3c(cc2Cl)N2CCCCCC2=NS3(=O)=O)cc1 | inactive | – |
| CCOc1ccc(S(=O)(=O)N2CCOCC2)c2ccccc12 | inconclusive [activator, single point] | – |
| CCS(=O)(=O)c1nc(S(=O)(=O)c2ccc(C)cc2)c(N2CC(C)CC(C)C2)s1 (stereo unspecified) | inconclusive [activator, partial curve, poor fit] | – |
| COc1cc2ccccc2cc1C(=O)Nc1ccc(C)cc1 | inconclusive [activator, single point] | – |
| Cc1ccc(NC(=O)CN(c2ccc(Cl)cc2)S(=O)(=O)c2cc([N+](=O)[O-])ccc2Cl)c(C)c1 | inactive | – |
| CCCn1c(=O)[nH]c(=O)c2c1nc(-c1ccc(OC(F)F)cc1)n2CCN1CCOCC1 | inconclusive [activator, partial curve, poor fit] | – |
| Cc1ccc2[nH]c3c(c2c1)CN(C(=O)CN1c2ccc(F)cc2CCC1C)CC3 (stereo unspecified) | inconclusive [activator, partial curve, poor fit] | – |
| COc1ccc(OC)c(CNC(=O)C(C)n2nc(C)c3c(C)n(-c4ccccc4)nc3c2=O)c1 (stereo unspecified) | inconclusive [activator, partial curve, poor fit] | – |
| CN(C)CCC=C1c2ccccc2C(C)(C)c2ccccc21 | active: 29.9 µM | – |
| CCN(CC)CCNC(=O)CCCCn1c(=S)[nH]c2c([nH]c3ccc(OC)cc32)c1=O | inactive | – |
| CCn1c2ccccc2c2nc3cc(S(=O)(=O)N4CCOCC4)ccc3nc21 | inactive | – |
| CC(/C=C/c1ccco1)=N\NC(=O)c1cccc(Cl)c1 | inactive | – |
| CCc1cccc2c(C(=S)N3CCCC3)c[nH]c12 | inactive | – |
| CSc1ccccc1C(=O)Nc1ccc2c(c1)OCCO2 | inactive | – |
| C=CCn1c(C)c(C(C)=O)cc(NC(=O)c2ccccc2)c1=O | inactive | – |
| Cc1ccc(C2=CSC3=NNC4(CCCCC4)NN23)cc1 | inconclusive [activator, partial curve, poor fit] | – |
| Cc1ccc2nc(-c3ccc(NC(=O)Cc4cccs4)cc3)[nH]c2c1 | inconclusive [activator, single point] | – |
| O=C(Cc1ccccc1[N+](=O)[O-])N1CCOCC1 | inconclusive [activator, single point] | – |
| Cn1c(=O)[nH]c(=O)c2c1nc(N/N=C/C(Br)=C/c1ccccc1)n2CCO | inconclusive [activator, partial curve, poor fit] | – |

| Compound | Potency | activity, positive = re-replication |
| --- | --- | --- |
| Cn1ccnc1C(=O)c1cccc([N+](=O)[O-])c1 | inactive | – |
| C/C(=N\NC(=O)C12CCC(C)(C(=O)O1)C2(C)C)c1ccccc1O (stereo unspecified) | inconclusive [activator, partial curve, poor fit] | – |
| O=C(N/N=C/c1cccs1)c1cc(C2CC2)nc2ccccc12 | active: 8.2 µM | – |
| COc1ccc2oc(C(=O)OCC(=O)NC(=O)c3ccccc3)c(C)c2c1 | inactive | – |
| CC(=O)N1CCc2cc(Br)cc(S(=O)(=O)N3CCC(C(=O)O)CC3)c21 | inconclusive [activator, single point] | – |
| COc1cccc(-c2nnc(-c3ccc4ccccc4c3)o2)c1 | inconclusive [activator, single point] | – |
| Cc1ccnc(SCCn2c(Br)nc3c2c(=O)[nH]c(=O)n3C)n1 | inactive | – |
| CN1CCc2nc(NC(=O)c3cccc(S(=O)(=O)N4CCc5ccccc54)c3)sc2C1 | inconclusive [activator, partial curve, poor fit] | – |
| Cc1cc(C(=O)Nc2ccncc2)c(C)o1 | inactive | – |
| Cc1cc(=O)n2c3ccccc3n(CC(O)CN3CCC(C)CC3)c2c1C#N (stereo unspecified) | inactive | – |
| CN(C[C@H](Cc1ccccc1)N(C[C@@H](CC1CCCCC1)N(CCc1ccccc1)N=O)N=O)N=O | inconclusive [activator, partial curve, poor fit] | – |
| CCn1c(SCC(=O)N/N=C(\C)c2ccncc2)nnc1-c1ccc(C)cc1 | inconclusive [activator, partial curve, poor fit] | – |
| CCC(C)N(CC(=O)Nc1cccc(C)c1C)C(=O)CCl (stereo unspecified) | inconclusive [activator, single point] | – |
| CCC(c1nnnn1CCc1ccccc1)N1CCN(c2ccc(OC)cc2)CC1 (stereo unspecified) | inconclusive [activator, partial curve, poor fit] | – |
| COc1cc(OC)c(N(C)S(=O)(=O)c2cccc(C(=O)OCC(=O)NCc3ccco3)c2)cc1Cl | inconclusive [activator, single point] | – |
| Cc1ccc(S(=O)(=O)N2C[C@@H]3CCCC[C@@H]3[C@@H](C)[C@H]2c2cn(Cc3ccccc3)c3ncccc23)cc1 | inconclusive [activator, single point] | – |
| Cc1cc2c(cc1C)CSC(c1ccc(O)cc1)SC2 | inactive | – |
| CCSc1ccc([C@@H]2[C@@H]3C(=O)N(CC)C(=O)[C@@H]3[C@]3(C(=O)OC)CCCCN23)cc1 | inactive | – |
| O=C(CN1CCCCCCC1)Nc1cc(Cl)cc(Cl)c1 | inconclusive [activator, single point] | – |
| C=C(C)COc1ccc(-c2n[nH]c(C)c2-c2ccc(OC)cc2)c(O)c1 | active: 20.6 µM | – |
| OCCC1CN(Cc2cccc3nccnc23)CCN1C1CCCC1 (stereo unspecified) | inconclusive [activator, partial curve, poor fit] | – |
| Cc1ccc(S(=O)(=O)N(C)c2ccc3sc(C)nc3c2)cc1 | active: 9.2 µM | – |
| Cc1cccc2c(=O)c(C(=O)NCc3ccc(F)cc3)c[nH]c12 | inconclusive [activator, partial curve, poor fit] | – |
